Measured values as given in PubChem BioAssay AID504706 (National Center for Advancing Translational Sciences (NCATS), 2011).
In all, about 320,000 compounds went through this assay and about 200 (0.062%) were called active. The inconclusive results got no clear call from the source; some entries with a clear call stand among them for comparison. Calls follow the shape of the dose curve; as a rule, active = well fitted activation curve with a large enough effect; inconclusive = small, poorly fitted or top-dose-only effect; inactive = no such curve, though single readings can be large or run the other way. Potencies of inconclusive entries are left out as doubtful fits.

Test: qHTS assay for re-activators of p53 using a Luc reporter; also: nearly all actives have a fitted effect of over 45% in size; as to activity change, positive = activation: % of control where 0% means no effect
Conditions: H1299 p53-A138V BP100-luciferase reporter, luminescence, 24 h; series mostly up to 92.2 µM; activity change, positive = activation: at the top concentration
Procedure, shortened: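 H1299 (p53-null), stable ts p53-A138V + BP100-Luc; 1000 cells/well, Opti-MEM/10% FBS; cpd 4 pt, 1:5; 24 h, 37 deg C, 5% CO2; detection reagent 10 min RT; luminescence.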
Potency is read from the fitted curve at half-maximal effect; tags tell the direction and shape of the fitted curve.

| Compound | Potency | activity change, positive = activation |
| --- | --- | --- |
| O=[N+]([O-])c1ccc(C(O)CSC(=S)N2CCCCC2)cc1 (centres undefined) | inconclusive [activator, full curve, poor fit] | – |
| O=C(Nc1ccc(N2CCOCC2)cc1)c1ccncc1 | – | inactive: 14.3% |
| Cc1ccc(-c2cn3cccc(C)c3n2)cc1 | – | inactive: 2.23% |
| Cc1cccc(-c2noc(CCC(=O)N3CCN(c4cc(C)ccc4C)CC3)n2)c1 | inconclusive [activator, partial curve, poor fit] | – |
| Cc1ccc(C(=O)N/N=C/C2=Cc3ccccc3OC2C)cc1 (centres undefined) | inconclusive [activator, full curve, poor fit] | – |
| Cn1c(CN2CCCC2)nc2cc(NC(=O)COc3ccccc3)ccc21 | – | inactive: -0.871% |
| CC(=O)N1CCc2cc(N=NC3=C(O)CC(C)(C)CC3=O)ccc21 | inconclusive [activator, full curve, poor fit] | – |
| Cc1cccc(NC(=O)CSc2nnc(-c3ccco3)n2CC2CCCO2)n1 (centres undefined) | – | inactive: -3.15% |
| COc1ccc(C(=O)COC(=O)c2ccc3c(c2)NC(=O)CS3)c(OC)c1 | – | inactive: -10.4% |
| Cc1nc2c3cnn(-c4ccc(C)c(C)c4)c3ncn2n1 | inconclusive [activator, partial curve, poor fit] | – |
| COc1ccc2c(Cl)c(C(=O)NN)sc2c1 | inconclusive [activator, partial curve, poor fit] | – |
| CCOC(=O)c1c(C)[nH]c(C)c1C(=O)COC(=O)c1ccc(S(=O)(=O)C(F)F)cc1 | – | inactive: -0.536% |
| Cc1c(Br)c([N+](=O)[O-])nn1CCCC(=O)NC(C)c1ccccc1 (centres undefined) | inconclusive [activator, single point] | – |
| Clc1ccccc1CSc1nnc(-c2ccncc2)o1 | inconclusive [activator, partial curve, poor fit] | – |
| CC1Oc2ccccc2N(CC(=O)NCc2cccs2)C1=O (centres undefined) | inconclusive [activator, single point] | – |
| CCOc1ccc2nc(N3CCCC(C(=O)NCCCN4C(C)CCCC4C)C3)sc2c1 (centres undefined) | inconclusive [activator, partial curve] | – |
| O=C(CCCN1C(=O)/C(=C\c2cccs2)SC1=S)NNC(=O)c1cccnc1 | inconclusive [activator, partial curve, poor fit] | – |
| Cc1cc(OCC(=O)Nc2ccc(N3CCN(C)CC3)cc2)ccc1Cl | inconclusive [activator, full curve] | – |
| Cc1ccc(C(=O)Nc2nnc(-c3cccs3)s2)cc1C | inconclusive [activator, partial curve, poor fit] | – |
| CC(=O)c1sc(NCc2ccccc2)nc1C | inconclusive [activator, single point] | – |
| CC(NC(=O)CSc1ccccc1)c1ccccc1 (centres undefined) | inconclusive [activator, single point] | – |
| C/C(=N\NC(=O)c1ccc(CN(C)S(=O)(=O)c2ccc(C)cc2)cc1)c1ccc(OC(F)F)cc1 | – | inactive: -1.55% |

| Compound | Potency | activity change, positive = activation |
| --- | --- | --- |
| COc1ccccc1NS(=O)(=O)c1ccc(Cl)c(NC(=S)NC(=O)C2CCCC2)c1 | – | inactive: -5.31% |
| Cc1ccc(-c2nnc(SCC(=O)N/N=C/c3ccc(C)s3)n2-c2ccc(C)cc2)cc1 | – | inactive: 2.97% |
| O=C(c1ccccc1)c1ccc(OCC(O)CNCc2ccc(F)cc2)cc1 (centres undefined) | inconclusive [activator, partial curve, poor fit] | – |
| O=C(NCc1cccc(Cl)c1)c1cc(COc2ccc3ncccc3c2)on1 | – | inactive: -1.91% |
| Clc1ccc(-c2cc(-c3ccccc3)on2)cc1 | inconclusive [activator, full curve, poor fit] | – |
| Cc1nc2c(sc3nc4c(cc32)COC(C)(C)C4)c(=O)n1CC(=O)NCc1ccco1 | inconclusive [activator, partial curve, poor fit] | – |
| COC(=O)c1cc(C(=O)Nc2cc(C)on2)cc([N+](=O)[O-])c1 | inconclusive [activator, single point] | – |
| O=C1C(Nc2ccc(O)cc2)=C/C(=N/S(=O)(=O)c2cccs2)c2ccccc21 | – | inactive: -12.1% |
| O=C(Cn1c(=S)nc2ccccn21)N1CCc2ccccc2C1 | inconclusive [activator, partial curve, poor fit] | – |
| O=C(COc1ccccc1)Nc1cc(Cl)ccc1Cl | – | inactive: 26.8% |
| Cn1c(=O)c(C(=O)NNC(=O)c2cccc(Cl)c2)c(O)c2ccccc21 | – | inactive: -1.81% |
| O=C(NC1CCCCCCC1)c1ccc(CNc2c(N3CCOCC3)c(=O)c2=O)cc1 | inconclusive [activator, single point] | – |
| O/N=C/c1ccc(OCc2ccccc2)c(Cl)c1 | inconclusive [activator, partial curve, poor fit] | – |
| Cc1nnc(NC(=O)C2CC(=O)N(Cc3ccccc3)C2)s1 (centres undefined) | inconclusive [activator, single point] | – |
| O=C(Nc1ccc(F)cc1)c1ccc(CSc2ccccc2)o1 | inconclusive [activator, full curve, poor fit] | – |
| N#Cc1cc2cc3c(cc2nc1SCC(=O)N1CCOCC1)OCCO3 | inconclusive [activator, full curve, poor fit] | – |
| Clc1ccccc1-c1nnc(-c2cccs2)o1 | inconclusive [activator, full curve, poor fit] | – |
| CCOC(=O)c1nc(-c2ccc3c(c2)OCO3)[nH]c1C | inconclusive [activator, partial curve, poor fit] | – |
| COc1ccc(-c2nnc(SCC(=O)Nc3cccc(Cl)c3)o2)cc1 | inconclusive [activator, full curve, poor fit] | – |
| Cc1ccc(-c2csc3nc(SCC(N)=O)n(Cc4ccccc4)c(=O)c23)cc1 | – | inactive: -6.94% |
| COc1ccc(Nc2ncnc3sccc23)cc1 | inconclusive [activator, partial curve, poor fit] | – |
| CCCCOc1ccc(-c2nnn(CC(=O)NCc3ccco3)n2)cc1 | inconclusive [activator, partial curve, poor fit] | – |
